The whole screen tested about 410,000 compounds, of which about 5,000 (1.2%) were called active. The inconclusive results got no clear call from the source; some entries with a clear call stand among them for comparison. Calls follow the shape of the dose curve; as a rule, active = well fitted inhibition curve with a large enough effect; inconclusive = small, poorly fitted or top-dose-only effect; inactive = no such curve, though single readings can be large or run the other way. A potency beside an inconclusive call is a rough fit, not a confirmed value.
Test: qHTS for Inhibitors of TGF-b; also: nearly all actives have a fitted effect of over 65% in size
Settings: HepG2 CAGA-GFP TGF-b/SMAD3 reporter, GFP fluorescence, 18 h, TGF-beta stimulated, 500 pg/mL final; series mostly up to 46.1 µM
Procedure, shortened: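 HEPG2 CAGA-GFP, 1000 cells/well; 2 h settle, 37 C; cpd via pin tool; TGF-b 500 pg/mL final; 18 h, 37 C; GFP imaging ex488/em500-530; %Activity normalised to -TGF-b and +DMSO controls; CRC fit, curve class.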
Potency is read from the fitted curve at half-maximal effect; tags tell the direction and shape of the fitted curve.

Structure (SMILES)	Potency
COc1cc2nc(SCc3ccc(F)cc3)n(Cc3cccs3)c(=N)c2cc1OC	inconclusive: 35.5 µM [inhibitor, single point]
CCC(C)c1ccc(S(=O)(=O)Nc2cccnc2)cc1 (stereo not drawn)	inactive
CCOc1ccccc1NC(=O)C(OC(=O)c1ccccc1O)c1ccccc1 (stereo not drawn)	inconclusive: 35.5 µM [inhibitor, single point]
CC(=O)N1c2ccc(S(=O)(=O)N3CCC(C(=O)NCc4ccc(C)cc4)CC3)cc2CC1C (stereo not drawn)	inconclusive: 22.4 µM [inhibitor, single point]
O=C(Nc1cccc(Cl)c1)ON1CCCCC1	inconclusive: 5.62 µM [inhibitor, single point]
COc1ccccc1-n1c(SCC(=O)c2ccc(O)cc2O)nc2cc([N+](=O)[O-])ccc21	inconclusive: 12.6 µM [inhibitor, partial curve]
CC(=O)c1ccc(NC(=O)COC(=O)c2ccccc2Nc2ccccc2)cc1	inconclusive: 1 µM [inhibitor, partial curve, poor fit]
CCN(c1ccccc1)S(=O)(=O)c1c[nH]c2ccc([N+](=O)[O-])cc12	inconclusive: 25.1 µM [inhibitor, single point]
Cc1ccc(N2CC(C(N)=O)CC2=O)cc1C (stereo not drawn)	inconclusive: 35.5 µM [inhibitor, single point]
CN(c1c[nH]c(=O)[nH]c1=O)C1CCCCC1	inconclusive: 25.1 µM [inhibitor, single point]
CN(Cc1cccs1)C(=O)c1ccc(S(=O)(=O)N2CCCCC2)cc1	inactive
COc1cc(C)c2sc3ccccc3c(=O)c2c1NCCN(C)C	inconclusive: 35.5 µM [inhibitor, single point]
C#CC[N+](C)(C)CC#Cc1ccccc1	inactive
O=c1cc(CNc2cc(C(F)(F)F)cc(C(F)(F)F)c2)nc2sccn12	inconclusive: 4.47 µM [inhibitor, full curve, poor fit]
CCOc1ccccc1-c1nc(CN2CCCN(C(=O)c3ccco3)CC2)c(C)o1	inconclusive: 5.62 µM [inhibitor, single point]
COc1cc(NC(=O)c2cccc(F)c2)cc(OC)c1OC	inconclusive: 35.5 µM [inhibitor, single point]
Cc1cc(N2CCOCC2)ccc1/C=C\[N+](=O)[O-]	active: 11.2 µM
CC1CCCN(C(=O)CSc2c3c(nc4cc(Cl)ccc24)CCCC3)C1 (stereo not drawn)	inconclusive: 14.1 µM [inhibitor, partial curve, poor fit]
O=C(CC(c1ccccc1)c1cc(Cl)ccc1O)NCCCN1CCOCC1 (stereo not drawn)	inconclusive: 0.1 µM [inhibitor, full curve, poor fit]
CCc1ccc(NC(=O)CSc2nc(=O)n(Cc3ccccn3)c3c2CCC3)cc1	inconclusive: 12.6 µM [inhibitor, single point]
O=C(Nc1nnc(S(=O)(=O)N2CCCc3ccccc32)s1)c1cccc(Cl)c1	inconclusive: 35.5 µM [inhibitor, single point]
Cc1ccc(NC(=O)c2cccnc2)c([N+](=O)[O-])c1	inactive

Structure (SMILES)	Potency
COc1ccc(C2=NN(C(C#N)c3ccc(OC)c(OC)c3)C(c3ccccc3)C2)cc1 (stereo not drawn)	inactive
COC(=O)N1c2ccccc2CCc2ccccc21	inconclusive: 0.112 µM [inhibitor, full curve, poor fit]
CCc1nc2ccc(C(=O)NCCCn3ccnc3)cn2c1N(C)C(=O)C1CCCCC1	inactive
CC(=O)C1=C(c2ccc(F)cc2)N(C(C)=O)n2c(nnc2C2CCCCC2)S1	inactive
COc1ccc(Nc2cc(C)c3c(O)cccc3n2)cc1	inconclusive: 35.5 µM [inhibitor, single point]
CC(C)c1c(C(=O)N/N=C/c2cccnc2)nnn1-c1nonc1N	inconclusive: 35.5 µM [inhibitor, partial curve, poor fit]
CCc1ccc(NS(=O)(=O)c2ccc(-c3cc(C)no3)cc2)cc1	inconclusive: 14.1 µM [inhibitor, partial curve, poor fit]
O=S(=O)(Nc1nc2ccccc2nc1N1CCc2ccccc2C1)c1ccc(Cl)cc1	inactive
CC(=O)N1c2ccc3ccccc3c2C(C)CC12CCCCC2 (stereo not drawn)	inconclusive: 35.5 µM [inhibitor, single point]
C=CCn1c(O)c(/C=C2\C=NN=C2c2ccccc2)sc1=S	inconclusive: 11.2 µM [inhibitor, partial curve]
COc1ccc([C@H]2N[C@]3(CCCN(Cc4ccc(Cl)cc4)C3=O)[C@H]3C(=O)N(Cc4ccccc4)C(=O)[C@@H]23)cc1	inactive
O=c1o[nH]c(-c2ccccc2)c1C1=NCCCCC1	inconclusive: 35.5 µM [inhibitor, single point]
Cc1ccc2nc(NNC(=O)c3ccc(S(=O)(=O)N4CCc5ccccc5C4)cc3)sc2c1	inconclusive: 10 µM [inhibitor, partial curve, poor fit]
COc1ccccc1NC1=C(N2CCCCC2)C(=O)c2ccccc2C1=O	inconclusive: 35.5 µM [inhibitor, single point]
O=C1/C(=C/c2cccnc2)SC(=S)N1Cc1ccco1	inactive
CN(C)CCN(Cc1ccco1)C(=O)c1cc2c(s1)-c1ccccc1OC2	inconclusive: 25.1 µM [inhibitor, single point]
O=C(NCCc1ccc(Cl)cc1)c1ccc2c(c1)nc1n2CCOC1	inconclusive: 3.98 µM [inhibitor, partial curve, poor fit]
COc1ccccc1Nc1nc(=O)[nH]nc1C	inconclusive: 0.112 µM [inhibitor, full curve, poor fit]
Cc1ccc(S(=O)(=O)n2c(N)nc3ccccc32)cc1	inconclusive: 14.1 µM [inhibitor, partial curve, poor fit]
COC(=O)N1C(=O)[C@@](c2ccccc2)(C(C)C)N1C(=O)OC	inconclusive: 35.5 µM [inhibitor, single point]
O=C(CCn1ccc([N+](=O)[O-])n1)Nc1nccs1	inconclusive: 35.5 µM [inhibitor, single point]

— PubChem BioAssay AID588855 (National Center for Advancing Translational Sciences (NCATS), 2011)
